The text below walks through data of PubChem BioAssay AID463173 (ICCB-Longwood Screening Facility, Harvard Medical School, 2010).

SMILES strings stand for the structures. The whole screen tested about 52,000 compounds, of which about 1,700 (3.3%) were called active. No stated cut-off is given here; in the data, active means survival mostly below about 52% (no sharp cut-off); inactive means mostly above about 56%. The list shows a part of the results.

The assay concerns Wild type. The assay can be described thus: S. aureus survival, RN4220 and DeltatarO strains – OD600, teichoic acid synthesis inhibitors, primary screen (AID 463173). The conditions noted are these: S. aureus RN4220 wild type/DeltatarO growth, OD600, 18 h, stronger effect = lower value, screened at 18.75 µg/mL (by protocol).
Turning to `CCOC(=O)c1[nH]c(C)c(CCC(=O)Nc2cc(Cl)ccc2C)c1C`, the survival was inactive: 73%.

In the case of `Cc1ccc(CNC(=O)C2CCN(c3nn4cc(-c5ccc(F)cc5)nc4s3)CC2)cc1`, the survival is inactive: 68%.

Consider `FC(F)(F)Oc1ccc(-n2[nH]nnc2=S)cc1`, for which the survival is inactive: 108%.

In the case of `CCSC1=NC2(CCN(C(=O)NC3CCCCC3)CC2)N=C1c1ccc(C)cc1`, the survival was inactive: 86%.

With `Cc1cc(S(=O)(=O)Nc2cc3c(cc2C)n(C)c(=O)c(=O)n3C)ccc1F`, the survival is inactive: 71%.

As for `CN=c1sc2ccccc2n1CC(O)c1ccccc1` (stereo not drawn), the survival was inactive: 102%.

Consider `Cc1cc(C)c2c(n1)nn1c(C)c(CCC(=O)Nc3ccc(C)c(Cl)c3)c(C)nc21`, for which the survival is inactive: 95%.

For `Cc1cn2c(=O)cc(COC(=O)c3cccc(NC(=O)C(C)Oc4ccccc4)c3)nc2s1` (stereo not drawn), the survival was inactive: 69%.

With `CCOc1ccccc1NC(=O)c1c(NC(=O)C(C)Oc2cccc(Cl)c2)sc2c1CCCCC2` (stereo not drawn), the survival is inactive: 80%.

`Cc1ccccc1NC(=O)CSc1ncc2c(n1)-c1ccccc1N(C)S2(=O)=O`: the survival is inactive: 99%.

As to `C1CCC2(C1)OCC1(CO2)COC2(CCCC2)OC1`, the survival is inactive: 111%.

Turning to `CCc1cc2c(cc3c(=O)n(CC(=O)NCc4cccc(Cl)c4)nc(CC)n32)s1`, the survival was inactive: 85%.

Take `CCC1=Nc2cc(C(=O)NCCc3ccccc3)ccc2Sc2ccc(Cl)cc21`: the survival was inactive: 91%.

Turning to `CCn1c(Oc2ccc(F)cc2F)nc2c1c(=O)n(C)c(=O)n2C`, the survival was inactive: 68%.

As to `CCOc1ccc(CC(=O)Nc2c(C(=O)c3ccc(Cl)cc3)oc3ccccc23)cc1OCC`, the survival was inactive: 65%.

Consider `CC1=C(C(=O)Nc2ccc(Cl)cc2)C(c2cccs2)n2nc(SCc3cccc(Cl)c3)nc2N1` (stereo not drawn), for which the survival was inactive: 95%.

Take `Cc1cccc(S(=O)(=O)c2cn(Cc3ccccc3)c3cc(N4CCC(C)CC4)c(F)cc3c2=O)c1`: the survival is inactive: 119%.

`COc1ccc(-n2nc3cc(C)c(NC(=O)COc4cccc(C)c4)cc3n2)cc1`: the survival is inactive: 78%.

Regarding `COc1cccc(CNC(=O)C(=O)NCC(c2cccs2)S(=O)(=O)c2cccs2)c1` (stereo not drawn), the survival is inactive: 74%.

Turning to `COc1cccc(OCc2nc3ccccc3n2Cc2ccccc2)c1`, the survival was inactive: 86%.

With `COc1ccc(Nc2cc(C(=O)NCCCN(C)Cc3ccccc3)c3ccccc3n2)cc1OC`, the survival is inactive: 120%.

In the case of `CN(C)S(=O)(=O)c1ccc(S(=O)(=O)N2CCN(C=O)CC2)cc1`, the survival is inactive: 110%.

With `CC1CCc2c(sc3nnn(CC(=O)Nc4cccc(C(F)(F)F)c4)c(=O)c23)C1` (stereo not drawn), the survival was inactive: 99%.

On to `O=C1C(=O)N(C2CCN(C(=O)c3ccc(F)cc3)CC2)CCN1Cc1ccc(F)cc1`, for which the survival is inactive: 71%.

On to `CCOC(=O)C1CCN(C(=O)Cc2cccc3ccccc23)CC1`, for which the survival is inactive: 103%.

`CCOc1ccc(NCc2cccn2-c2nnc(N3CCC(C(=O)NC(C)c4ccccc4)CC3)s2)cc1` (stereo not drawn): the survival is inactive: 79%.

`COc1ccc(-c2cc(C(F)(F)F)nc(NCc3ccccc3)n2)cc1OC`: the survival was inactive: 66%.

For the compound `COc1cccc(CN2c3ccccc3-c3nc(SCC(=O)Nc4cccc(C)c4)ncc3S2(=O)=O)c1`, the survival was inactive: 62%.

Regarding `CCc1ccc2oc(-c3cccc(NC(=O)c4ccc(-c5cccc([N+](=O)[O-])c5)o4)c3)nc2c1`, the survival was inactive: 52%.

On to `CCOc1ccc(Br)cc1C1C(C(=O)Nc2ccccc2OC)=C(C)Nc2nnnn21` (stereo not drawn), for which the survival is inactive: 90%.

Consider `Cc1cccc(OC(C)C(=O)N2CCC(c3nc4ccccc4o3)CC2)c1C` (stereo not drawn), for which the survival is inactive: 74%.

On to `CCc1nnc2c3ccccc3nc(Nc3ccc(F)cc3C)n12`, for which the survival was inactive: 64%.

As for `CCN1C(C(=O)c2ccccc2)=C(OC(=O)c2ccc(Cl)cc2)c2ccccc2S1(=O)=O`, the survival is inactive: 77%.

Regarding `CCOc1cccc(NC(=O)CSc2ncc(-c3ccc(Cl)cc3)[nH]2)c1`, the survival is inactive: 33%.

On to `Cc1ccc(C(=O)N/C(=C/c2ccco2)C(=O)Nc2nccs2)cc1`, for which the survival is inactive: 81%.

As to `CCn1c(=O)c(=O)n(CC)c2cc(N3CCCCC3)c(NC(=O)c3cccc(OC)c3)cc21`, the survival was inactive: 88%.

Consider `COc1ccc(C2CC(=O)C(C=NC3CCCC3)=C(O)C2)cc1` (stereo not drawn), for which the survival is inactive: 105%.

Regarding `Cc1oc(-c2ccc(C(=O)N(C)Cc3ccccc3)cc2)nc1CN1CCc2ccccc21`, the survival is inactive: 131%.

`CCOC(=O)c1cccc(NC(=O)N2Cc3ccccc3Oc3ncccc32)c1`: the survival is inactive: 81%.

As to `CC(=O)N1c2ccc(S(=O)(=O)NCCc3cccc(C)c3)cc2CC1C` (stereo not drawn), the survival is inactive: 66%.

On to `COc1ccc(-n2c(=O)c3c4c(sc3n(Cc3ccccc3)c2=O)CCC4)c(OC)c1`, for which the survival was inactive: 71%.

On to `Cc1ccc(NC(=O)CC2Sc3ccccc3NC2=O)c(C)c1` (stereo not drawn), for which the survival was inactive: 145%.

Consider `CCCCN(CCCC)S(=O)(=O)c1ccc(NC(=O)c2c(-c3ccccc3)noc2C)cc1`, for which the survival was inactive: 76%.

For `CCN(C(=O)c1cc(S(=O)(=O)N2CCCCC2)c[nH]1)c1ccc(OC)cc1`, the survival was inactive: 88%.

Turning to `Cc1cc(C)cc(OCCOCCn2c(-c3ccc(Cl)cc3)nc3ccccc3c2=O)c1`, the survival was inactive: 39%.

In the case of `CN1CCC(OC(=O)Cc2ccc(Cl)cc2)CC1`, the survival was inactive: 103%.

On to `C=Cc1ccc(CSc2nc(-c3ccc(Cl)cc3)nc3c2Cc2c(CO)cnc(C)c2O3)cc1`, for which the survival is inactive: 85%.

On to `CCOc1ccc(-n2c(-c3ccc(OC)cc3)cc3c2CC(C)(C)CC3=O)cc1`, for which the survival is inactive: 41%.

On to `Cc1ccc(C)c(Cn2cc(CCC(=O)NC3CCCCC3)c3ccccc32)c1`, for which the survival was inactive: 86%.

Consider `COc1cc(Cl)c(C)cc1NC(=O)CSCc1nc(-c2ccc(OC)c(OC)c2)no1`, for which the survival was inactive: 73%.

Regarding `Cn1c(NCc2ccccc2F)nc2ccccc21`, the survival was inactive: 104%.

In the case of `N=c1n(CCO)c2ccccc2n1CCOc1ccc(F)cc1`, the survival was inactive: 75%.

Regarding `Cc1cccc(C)c1NC(=O)C1CCN(S(=O)(=O)c2cccc3nsnc23)CC1`, the survival was inactive: 76%.

In the case of `CCC(=O)Nc1nc(-c2ccc3c(c2)CCN3C(C)=O)cs1`, the survival is inactive: 114%.

For `CC(=O)c1cccc(-n2c(CCC(=O)O)ccc2-c2ccccc2)c1`, the survival is inactive: 81%.

As for `COc1ccc(OC)c(Nc2cc(C(=O)NCc3ccccc3)c3ccccc3n2)c1`, the survival was inactive: 139%.

On to `CCOC(=O)C1CCN(C(=O)c2ccc3c(c2)sc2nc(-c4ccc(OCC)cc4)cn23)CC1`, for which the survival was inactive: 86%.

Turning to `Cc1ccc(NC(=O)Cn2ccn(Cc3ccc(Cl)cc3)c(=O)c2=O)cc1C`, the survival was inactive: 114%.

Regarding `COc1ccc(-c2nc(SCC(=O)NC3CCCC3)c(-c3ccccc3)[nH]2)cc1OC`, the survival was inactive: 76%.

On to `O=C(N1CCCCC1)N1c2ccccc2C=Cc2ccccc21`, for which the survival was inactive: 95%.

Turning to `Cc1ccc(-n2ncc3c(Nc4ccc5c(c4)OCCO5)ncnc32)cc1C`, the survival was inactive: 100%.

With `CCOc1ccccc1C(=O)N1CCc2cc(OC)c(OC)cc2C1COc1ccc2c(C)cc(=O)oc2c1` (stereo not drawn), the survival is inactive: 76%.

With `COc1ccc(/C=C(\NC(=O)c2ccccc2)C(=O)NC2CCCCC2)cc1`, the survival is inactive: 93%.

For `Cc1ccc(OCCSc2nc3ccccc3n2CCC(=O)O)cc1C`, the survival is inactive: 63%.

As to `CCOc1ccc(NC(=O)NC(CC)Cn2nnc3ccccc3c2=O)cc1` (stereo not drawn), the survival is inactive: 121%.

Turning to `Cc1nc2ncnn2c(C)c1CCC(=O)NCc1ccc(Cl)cc1`, the survival is inactive: 72%.

With `O=C(CSc1ncc(S(=O)(=O)c2ccc(Br)cc2)c(=O)[nH]1)NCc1ccccc1Cl`, the survival is inactive: 67%.

Regarding `CCN1CCN(C(c2ccc(Cl)cc2)c2c(O)cc(C)n(CCOC)c2=O)CC1` (stereo not drawn), the survival is inactive: 63%.

Consider `COc1ccc(-c2cc(C(=O)Oc3ccc(Cl)cc3)c3ccccc3n2)cc1`, for which the survival is inactive: 60%.

For `CC(C)c1nnc(SCC(=O)NC(C)(C)C)n1C`, the survival was inactive: 106%.

Take `Cc1ccc(N(CCO)S(=O)(=O)c2ccc(NC3=NS(=O)(=O)c4ccccc43)cc2)cc1`: the survival is inactive: 106%.

For `CCCCn1cnc2cc(NC(=O)c3cc(OC)c(OC)c(OC)c3)ccc21`, the survival is inactive: 79%.

Take `Cc1cc(C)cc(N(CC(=O)Nc2ccc(C(F)(F)F)cc2)S(=O)(=O)c2c(C)[nH]c(=O)[nH]c2=O)c1`: the survival was inactive: 66%.

Turning to `CCCC(=O)Nc1c(C(=O)N2CCN(c3ccccc3)CC2)oc2ccccc12`, the survival is inactive: 82%.

Take `COc1ccc(CCNC(=O)c2cc3cccc4c3n2CC(C)S4)c(OC)c1OC` (stereo not drawn): the survival is inactive: 71%.

Consider `CC(C)c1ccc(S(=O)(=O)Nc2cc3c(cc2NCc2ccccc2)n(C)c(=O)n3C)cc1`, for which the survival was inactive: 66%.

Take `CCC(=O)N1CCc2cc(S(=O)(=O)NC(Cc3ccccc3)C(=O)Nc3ccc(Cl)cc3)ccc21` (stereo not drawn): the survival is inactive: 76%.

As for `COc1ccccc1C(=O)N1CCC(c2c[nH]c3ccccc23)(c2c[nH]c3ccccc23)CC1`, the survival was inactive: 96%.

For the compound `O=C(CSc1nc(-c2ccccc2)[nH]c1-c1ccc(F)cc1)NC1CCCC1`, the survival was inactive: 77%.

For `CC(C)(C)c1ccc(C(=O)Nc2ccc3nc(SCC(=O)N4CCCC4)sc3c2)cc1`, the survival was inactive: 89%.

Regarding `CCOc1ccccc1NC(=O)Cn1c(=O)n(Cc2ccco2)c(=O)c2cccnc21`, the survival is inactive: 67%.

Consider `CCc1ccccc1NC(=O)C1=CC(c2ccc3c(c2)OCO3)=NS(=O)(=O)N1C`, for which the survival was inactive: 78%.

Take `COc1ccccc1C(=O)CC1(O)C(=O)N(CC(N)=O)c2ccccc21` (stereo not drawn): the survival was inactive: 65%.

Consider `Cc1ccc(C(=O)NC2CCN(C(=O)NC3CCCCC3)CC2)cc1`, for which the survival was inactive: 103%.

As to `O=C(CN1C(=O)COc2ccc(S(=O)(=O)N3CCCCCC3)cc21)N1CCN(c2cccc(Cl)c2)CC1`, the survival is inactive: 77%.

In the case of `CC(C)(C)OC(=O)N1CCC(c2c(C(=O)O)cnn2-c2ccc(F)cc2F)CC1`, the survival is inactive: 77%.

Turning to `CCOC(=O)c1c(NC(=O)CN(CC)CC)sc2c1CCC/C2=N\O`, the survival is inactive: 112%.

On to `CCNC(=O)NC1(C(=O)Nc2ccc3c(c2)OCCO3)CCCCC1`, for which the survival was inactive: 113%.
